The values below come from PubChem BioAssay (NCI).

“And” between values parts separate entries of the source, which are not always exact repeats. Equal values may be shown once.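 Step 1: Grow cells in 96-well plates. Step 2: Expose to compound for 48 hours at 5 concentrations. Step 3: Interpolate endpoints linearly; if unreached, use highest concentration. GI50: concentration for 50% inhibition of growth. TGI: concentration producing complete growth inhibition.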 Numbered stars: 1 amine (or outer) side, 2 acyl side, 3 side chain; on linkers, the order of the positions; unused ones are H or OH. Peptide text beside a SMILES is read from it. CO = O=C([*:1])[*:2]

For the test, the system named is NCI-H322M lung. Nature of the test: NCI tumour cell line growth inhibition, 48 h.
`COc1c(C(=O)O)cccc1-c1cccc(C(=O)NCCN(CCNC(=O)c2cccc(-c3cccc(C(=O)O)c3OC)c2OC)CCNC(=O)c2cccc(-c3cccc(C(=O)O)c3OC)c2OC)c1OC` returned a TGI above 100 µM. On the same count and under the same terms, as for `CCOC(=O)C1=C(C)C2C3C(=O)NC(=O)C3C1(C)C1C(=O)NC(=O)C21` (stereo not given), the figure is above 100 µM. On the same count and under the same terms, as for `O=C1c2scnc2-c2nccc3c2c1nc1ccccc13`, the figure is 2.88 µM. Same read-out and setting: then `Nc1ccccc1C(=O)NNC(=O)c1ccccc1N`, with above 100 µM; and `N#CC(c1ccc(Cl)cc1)c1cccc(Cl)n1` (stereo not given), with above 100 µM; and `COc1c(C(CC(C)C)OC(C)=O)ccc2c1C(=O)OCc1cc(C)cc(O)c1O2` (stereo not given), with 32.7 µM. For `O=C1CCC(NC(=O)Cc2ccc(O)cc2)C(=O)N1` (stereo not given), the TGI was above 2500 µM.

As to `O=c1c2cc([N+](=O)[O-])cnc2sn1-c1ccc(Oc2ccccc2)cc1`, the TGI was above 100 µM. The same measure, in the same setting: as for `C/C(=C\c1csc(C)n1)[C@@H]1C[C@@H]2O[C@]2(C)CCC[C@H](C)[C@H](O)[C@@H](C)C(=O)C(C)(C)[C@@H](O)CC(=O)O1` (tested in a mixture with another compound), the figure is above 0.588 µM. Same read-out and setting: as for `Clc1cccc(Cl)c1C1SCc2nc3cc4ccccc4cc3n21` (stereo not given), the figure is above 100 µM; as for `NC1=NN(c2ccccc2)C(=O)C1C(=O)C(=O)Nc1cccc(C(F)(F)F)c1` (stereo not given), above 100 µM.

In the case of `C=CCNC(NCC=C)=C(C(Cl)=C(Cl)Cl)[N+](=O)[O-]`, the TGI is above 100 µM. Consider `CO/C=C/c1cc2c(cc1C(OC)OC)OCO2`, for which the TGI was above 100 µM. The same measure, in the same setting: as for `C#CCOC(=O)C(N)CS` (stereo not given), the figure is above 100 µM.

`CCOP(=O)(CCC(O)CNc1nc(N)nc(Cl)c1N=Nc1ccc(Cl)cc1)OCC` (stereo not given): the TGI was found to be 28.3 µM. With `COc1cc(N)ccc1Nc1c2ccccc2nc2ccccc12`, the GI50 was 17.2 µM and the TGI was 33 µM.

With `C=C(CO)[C@H]1CC/C(C)=C/CC/C(C)=C/C/C=C(\C)[C@H](O)C1`, the TGI was above 100 µM.

In turn, `O=C1C=CC(=O)N1c1ccc2c(c1)Cc1cc(NC(=O)C(F)(F)F)ccc1-2` registered a TGI above 84.9 µM.

In the case of `CC(C)C(NC(=O)C(CCCN=C(N)N)NC(=O)NC(Cc1ccccc1)C(=O)O)C(=O)NC(C=O)CCCN=C(N)N` (stereo not drawn) ({Phe-CO}-Arg-Val-Arg-aldehyde; configuration not given here), the GI50 was above 5 µM and the TGI is above 5 µM. On to `COc1ccc(C(=O)c2ccc(OC)cc2OC)cc1`, for which the GI50 was 3.59 µM and the TGI was above 100 µM. Regarding `COc1ccccc1NC(=S)Nc1cccc(C)n1`, the TGI was above 100 µM. As to `O=C(Nc1ccc(N=Nc2ccccc2)cc1)Sc1ccccc1C(=O)O`, the TGI was above 100 µM. Same read-out and setting: then `Cc1cccc(NC(=O)CSc2nnc(Cc3ccccc3)o2)c1`, with above 100 µM; and `COC1CCC(OS(C)(=O)=O)CO1` (stereo not given), with above 100 µM. Turning to `Nc1ccn(C2OC(COP(=O)(O)O)C(O)C2O)c(=O)n1` (stereo not given), the TGI is above 100 µM. On the same count and under the same terms, as for `CC1=C(C(=O)OC23CC4CC(CC(C4)C2)C3)C(c2ccccc2OC(F)F)C(C(=O)OC23CC4CC(CC(C4)C2)C3)=C(C)N1` (stereo not given), the figure is above 100 µM. Still for that read-out and setting: as for `O=C1C(Br)=C(c2ccccc2)C(c2ccccc2)=C1c1ccccc1`, the figure is 29.5 µM; as for `CC(=O)C1=C(O)C2(O)C(=O)c3c(c(C)c4ccc(C)c(O)c4c3O)CC2C(N)C1=O` (stereo not given), 9.04 µM.

For the molecule `Cc1ccc(-c2nc3nc(-c4ccc(Cl)cc4)nc(N4CCCNCC4)c3o2)cc1`, the GI50 was 1.63 µM and the TGI was determined as 2.98 µM. On to `COc1ccc2c(c1)C(=O)c1c-2c(N2CCN(C(=O)CN(C)C)CC2)nc2ccccc12`, for which the GI50 is 28.4 µM and the TGI worked out at 96.6 µM. As to `CC1=C(C#N)C(=O)N(/N=C/c2ccc(Cl)cc2)C(=O)/C1=c1\o/c(=C2/C(=O)N(/N=C/c3ccc(Cl)cc3)C(=O)C(C#N)=C2C)c2nccnc12`, the TGI is above 100 µM. `CC(C)(C)c1cc(N=NC(=S)NCc2ccccc2)cc(C(C)(C)C)c1O` returned a TGI above 100 µM.

On to `[N-]=[N+]=Nc1cc(=O)n(-c2ccccc2)c(=O)n1-c1ccccc1`, for which the TGI is above 100 µM. `CCC1=NC(N/N=C/c2ccccc2O)=N/C1=C\c1ccccc1O` gave a TGI above 80.9 µM.

On to `N=c1oc2cc(O)c(O)cc2cc1C(N)=O`, for which the TGI was above 100 µM. As to `O=C(CSc1nc2sc3c(c2c(=O)n1-c1ccccc1)CCCCC3)N/N=C/c1ccc(F)cc1`, the GI50 was 4.72 µM and the TGI was determined as 70.4 µM. On to `c1ccc2c(OCC3CO3)ccc(OCC3CO3)c2c1` (stereo not given), for which the TGI was found to be 22.4 µM. The same measure, in the same setting: as for `O=C1OC2(c3ccccc31)c1cc(I)c(O)c(I)c1Oc1c2cc(I)c(O)c1I`, the figure is above 100 µM; as for `O=C(/C=C\c1cccc2ccccc12)c1ccc(Br)cc1`, above 100 µM. Regarding `O=C1c2ccccc2-c2ccc(O)cc21`, the TGI came to 70.3 µM. `COc1ccc2c(c1)/C(=C/c1c(-c3ccc(C)cc3)nc3sc(C)cn13)C(=O)N2`: the GI50 was above 100 µM and the TGI is above 100 µM.

The molecule `CC(C)[Si](OCC/C=C/C1CCC(=O)C1C(O)C1CCCCC1)(C(C)C)C(C)C` (stereo not given) registered a TGI of 28.8 µM. Same read-out and setting: as for `CCOC(=O)c1c(-c2ccc(Cl)cc2)c(C#N)c(=S)n(C2OC(CO)C(O)C(O)C2O)c1-c1ccccc1` (stereo not given), the figure is above 100 µM. In the case of `CCC[CH2][Sn]([CH2]CCC)([O]C(=O)c1cccc(F)c1F)[O][Sn]([CH2]CCC)([CH2]CCC)[O]C(=O)c1cccc(F)c1F`, the GI50 was 1.3 µM and the TGI was determined as 2.57 µM. In the same order, the values of `CN1CCN(CCCOc2ccc3ncnc(Nc4ccc(Oc5cccc(C(F)(F)F)c5)c(Cl)c4)c3c2)CC1` are 1.37 µM and 3.04 µM. On the same counts, the results for `CCOC(=O)c1ccc2[nH]c(Cc3[nH]c4ccc(C(=O)OCC)cc4c3C)c(C)c2c1` are 10.7 µM and 70.3 µM. Take `CC[N+](CC)(CC)Cc1cn(S(=O)(=O)c2ccccc2)c2ccccc12`: the TGI was above 100 µM. The same measure, in the same setting: as for `CCC/C(Cl)=N\OC(=O)Nc1ccc(Br)cc1`, the figure is 27.8 µM; as for `CC(=O)NNc1nc(C)c(C(/C=C/c2ccccc2O)=N/NC(=O)c2ccncc2)s1`, above 100 µM; as for `COc1ccc(-c2cc(=O)c3c(O)c(OC)c(O)cc3o2)cc1O`, above 81.8 µM. Consider `O=[N+]([O-])c1ccccc1/C=C/C=C1c2ccccc2-c2ccccc21`, for which the GI50 was above 100 µM and the TGI was above 100 µM.

On to `CC1(C)CC2=NOS3=C2C(=NO3)C1c1ccccn1` (stereo not given), for which the TGI was above 100 µM.

Molecule `CCOC(=O)C(=O)Nc1ccc([N+](=O)[O-])cc1C#N` gave a TGI above 100 µM. On the same count and under the same terms, as for `Cc1cc2c(cc1Cl)SC(NNC(=O)c1ccncc1)=NS2(=O)=O`, the figure is above 10 µM; as for `N#Cc1c(C(N)=O)ncn1Cc1ccccc1`, above 100 µM. On to `O=C(/C=C/C12c3ccccc3C(c3ccccc31)C1C(=O)NC(=O)C12)c1ccco1` (stereo not given), for which the GI50 is 2.95 µM and the TGI stood at 12 µM. Molecule `CSC1=N/C(=C\c2ccc(Cl)cc2)C(=O)N1CN1CCOCC1` yielded a TGI above 100 µM.

Turning to `CCCCC1Cc2cc(OC)ccc2-c2nc3cc(OC)ccc3n21` (stereo not given) (tested in a mixture with another compound), the TGI came to 33.8 µM. As to `Cc1cc(-c2cc(C)c(O)c(C(C)(C)C)c2)cc(C(C)(C)C)c1O`, the TGI is 26.3 µM and 28.8 µM.

In turn, `COC(=O)C(Cc1ccccc1)C(=O)NC(CNC(=O)OCc1ccccc1)C(=O)OCc1ccccc1` (stereo not given) came in with a TGI above 100 µM. Consider `Cc1c(N(C(=O)c2cc(-c3cc(Cl)ccc3C(=O)N3Cc4ccccc4C[C@H]3CN3CCOCC3)n(C)c2C)c2ccc(O)cc2)cc(C#N)n1C`, for which the GI50 is 33 µM and the TGI was above 100 µM. `Cc1cc(C)n(C(=O)C(C)Sc2nnc(SC(C)C(=O)n3nc(C)cc3C)s2)n1` (stereo not given) came in with a TGI above 100 µM. On the same count and under the same terms, then `CC(C(O)c1ccccc1)N(C)/N=N/c1nc2c([nH]1)c(=O)n(C)c(=O)n2C` (stereo not given), with above 100 µM; and `C=CCOCCCC(=O)C(=[N+]=[N-])C(=O)OC`, with above 100 µM; and `COC(=O)C1=C(C(=O)OC)C(C(=O)c2ccccc2)N2N=C(c3ccc(Cl)cc3)C=CC12` (stereo not given), with above 100 µM. `Cc1c(N)nc([C@H](CC(N)=O)NC[C@H](N)C(N)=O)nc1C(=O)N[C@H](C(=O)N[C@H](C)[C@@H](O)[C@H](C)C(=O)N[C@H](C(=O)NCCc1nc(-c2nc(C(=O)NCCC[S+](C)C)cs2)cs1)[C@@H](C)O)C(OC1OC(CO)C(O)C(O)C1OC1OC(CO)C(O)C(OC(N)=O)C1O)c1cnc[nH]1` (stereo not given in full): the GI50 was > 25 µM and 33.2 µM; the TGI is 24.4 µM and > 25 µM and > 100 µM. `Cc1nc2c(n1CCCl)C(=O)c1ccccc1C2=O` registered a TGI above 100 µM. `Cc1cc(Cl)ccc1NC(=O)/C(CC(=O)CC(c1ccccc1)c1c(O)c2ccccc2oc1=O)=N\O` (stereo not given) returned a TGI above 100 µM.

In turn, `CCOC(=O)Cc1nc2nn(Cc3ccccc3)cc2c(=O)[nH]1` came in with a TGI above 100 µM.

Consider `COc1cc(-c2ccc(-[n+]3nc(-c4ccc([N+](=O)[O-])cc4)nn3-c3ccc([N+](=O)[O-])cc3)c(OC)c2)ccc1-[n+]1nc(-c2ccc([N+](=O)[O-])cc2)nn1-c1ccc([N+](=O)[O-])cc1`, for which the GI50 was 12.8 µM and the TGI is 39.8 µM.

`NC(=S)Nc1nnc(-c2ccc(-c3nnc(NC(N)=S)o3)cc2)o1` displayed a TGI above 100 µM.

Regarding `Cc1cc(Nc2nc(N3CCOCC3)nc3ccccc23)n[nH]1`, the GI50 was 26.1 µM and the TGI was above 100 µM. Regarding `O=C1CC(c2ccccc2)NCN1` (stereo not given), the TGI is above 100 µM. With `CCN(CC)/C(=C\Cl)Nc1ccccn1`, the TGI was above 100 µM. `CCN(CC)CCCC(C)N/C(c1cccc(OC)c1)=c1\c(=O)[nH]n(-c2c3ccccc3nc3ccccc23)c(=O)\c1=C(/NC(C)CCCN(CC)CC)c1cccc(OC)c1` (stereo not given): the GI50 was 1.28 µM and the TGI turned out to be 3.42 µM. In the same order, the values of `C=C1C(=O)O[C@H]2[C@H]1CC/C(Cn1cc(Cn3ccc4cc(Cl)ccc43)nn1)=C\CC[C@@]1(C)O[C@@H]21` are 9.39 µM and 21.3 µM. `Cn1c(=S)[nH]c2c(Cl)cc(Cl)cc2c1=O`: the TGI was above 100 µM. For the molecule `COc1nc(C#CCCCC#N)nc(OC)n1`, the TGI is 41.7 µM. On the same count and under the same terms, as for `CC(=O)C1(c2ccccc2)CCCN(C)CC1` (stereo not given), the figure is above 100 µM. Regarding `O=C(Nc1nc(-c2ccc(Cl)cc2)cs1)c1ccc(O)c(O)c1`, the GI50 is 10.5 µM and the TGI came out at 39.2 µM. Turning to `Cc1nc(Nc2ccccc2)sc1C(=O)NNC(N)=O`, the TGI was above 100 µM.
